Results from the RNAGym collection of RNA variant scans (doi:10.1073/pnas.2313332121).
This sample is rich in variants without activity.

B1: TPR 5TU (parent)
chain: GGAUCUUCUCGAUCUAACAAAAAAGACAAAUCUGCCACAAAGCUUGAGAGCAUCUUCGGAUGCAGAGGCGGCAGCCUUCGGUGGCGCGAUAGCGCCAACGUUCUCAACUAUGACACGCAAAACGCGUGCUCCGUUGAAUGGAGUUUAUCAUG

Variants of: B1
Test: polymerase ribozyme fitness, log enrichment relative to wild type (log ratio); higher = more active; in vitro selection for triplet polymerase activity
Outline: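 Mutant libraries for each subunit of a heterodimeric triplet polymerase ribozyme were made by PCR and then transcribed. Each library underwent one round of in vitro selection in triplicate: annealing with a biotinylated primer, the partner subunit and triplets, frozen incubation at −7 °C, gel excision of extended constructs, streptavidin-bead capture and RT-PCR. Input and output libraries were Illumina-sequenced, and only genotypes with ≥10 input reads and ≥1 read per output were kept. Fitness is the logarithm, base 2, of genotype enrichment over wild-type enrichment, computed from inverse-variance-weighted replicate averages.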

Variant	polymerase ribozyme fitness (log ratio)
U56A G83A A110U C116G	≤ -4.2
U56A C75A G92A C129G	≤ -4.2
C57G G88U A89U A97U G136A	≤ -4.2
G58C C79G C93U	≤ -4.2
G59C C93G G140U	≤ -4.2
U56A C57U G83A	0.0377
C57A C85G A89C C108U A142C	≤ -4.2
U56A C76A C108A G140C A147U	≤ -4.2
C57G C93G C105A C114U	≤ -4.2
G59A C76G C93G	≤ -4.2
C57U G83A U104C A138U A147C	≤ -4.2
G59A G84U G92C C95G G124C	-2.69
G58A U135C	-1.39
C57G G94C A98G C105U	-0.386
U56A U78G G92A U144A	≤ -4.2
U56G C79U C85U A98G	≤ -4.2
C57U U77C C93U U135A	≤ -4.2
G58U G83U C85G U90C C132U	≤ -4.2
U56A C63U U77A C87U U104C U135A	≤ -4.2
G59A G74A	-3.23
G58A C103U C118A C132A A138C	≤ -4.2

Variant	polymerase ribozyme fitness (log ratio)
C57G C85U G117U C118G	-1.51
G59C A64G G84A U111C	≤ -4.2
C57G A91G A147C	-3.13
C57A U77C U82A	≤ -4.2
C57A U77G C79G A89U G94U A115U	≤ -4.2
G58A U77C G80U U90G C93A A121G A142G	≤ -4.2
U56G C79A G140A	≤ -4.2
C57U C85G	-2.48
G59C C76A C87U A147C	-2.29
G58C G94C C132A G152U	≤ -4.2
U56A U61G A91C U127C U148C A150U	≤ -4.2
C57G C87G	≤ -4.2
U56A G59A C96U	0.392
G58A G100U	-3.22
G59A C103A C132G	≤ -4.2
C57U G58U	0.297
G58U C87A U109C U148C	≤ -4.2
G59A C85U U134A	-3.92
C57U C75G C85G G100A	≤ -4.2
C57U U102G A106U U148C	≤ -4.2
U56G G68U G92A C93A A106U A115U A150C	≤ -4.2

Variant	polymerase ribozyme fitness (log ratio)
G59U U90G A91G C95A G126C U146G	≤ -4.2
G59C G74A U135A	≤ -4.2
C57G C79G A97U	≤ -4.2
U56A U90A A98U A107G	≤ -4.2
U56C U109A	-1.87
C57G C79A U148A	≤ -4.2
G59C A73G C76A C114U A121U	≤ -4.2
G58C U61A C79A A91G G117A	≤ -4.2
C57G G86U C99U U101G U130A U135C U145G	≤ -4.2
G59C A64G G68C G140A	≤ -4.2
U56C U77A C129A	≤ -4.2
G59C G94C A119C U146G	-1.61
C57G G71A G88C C116U A138U	≤ -4.2
G58A A91C	≤ -4.2
G58U G100C C129U	≤ -4.2
U56G C57A G81A A107C G117A	≤ -4.2
C57G G65U A66U G80U C96U	≤ -4.2
U56G C79U U90A A107U C114G	≤ -4.2
C57A U82G G84U C95A	-0.701
G59C G124A	-1.57
G59C U61A U77G C96U	≤ -4.2

Variant	polymerase ribozyme fitness (log ratio)
G58U G83A C85U	-0.262
G59A A60U C76G C93G A107G C108G	≤ -4.2
G59A A60C U61G A73C C93A U109G G143C	≤ -4.2
G58U C132G	-2.82
G59U C93G A138G	≤ -4.2
C57A G58U	0.207
G59U A73G	-0.629
G58A C75G C125G C129A U151G	≤ -4.2
G59C C114U G128A A142U	-2.5
G58C C96U A98G A121G	-0.614
G58U U135C	-1.62
G59A U78G C87G A106U	≤ -4.2
U56C C132U	-1.47
G59C U101G	-0.121
G59U C87U C108U C125A	-3.4
G59A G92U C114A A119U	-3.59
U56A G58A C72U C87U U109G G136A U144C	-4.13
C57U C87U G88U U111C G141A	≤ -4.2
G59A C96A G117U	-0.271
G59U U90A G117A	≤ -4.2
C57U G80A C87U C96U A113U G141U	≤ -4.2
